The text below walks through data of paper PMC6919601, “Identification of Plasmodium dipeptidyl aminopeptidase allosteric inhibitors by high throughput screening” (PLoS ONE, 2019).

In all, about 110,000 compounds went through this assay and about 230 (0.21%) showed an effect of 50% or more. This is one part of the list.
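Note: 30 min substrate incubation versus DMSO and 10 µM JCP410 controls.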

For this test, the target named is DPAP1 (Plasmodium falciparum, UniProt Q8IIJ9). Description: primary screen, percent inhibition; read by cleavage of a fluorogenic dipeptide substrate; higher = more effect of the substance. Set-up: species or system P. falciparum D10 trophozoite lysates; single well. The protocol: HTS was performed in black 384-well plates. The first and last two columns of each plate contained our negative (DMSO) and positive (10 μM JCP410) controls, and the 20 central columns the test compounds at 10 μM. Compounds were first diluted 50-fold into assay buffer (50 mM sodium acetate, 5 mM MgCl2, 10 mM β-mercaptoethanol, and 0.1% CHAPS, pH 5.5) from a 10 mM DMSO stock plates. One microliter of this 200 μM intermediate stock plate was dispensed into the assay plate. […] After 30 min, the reaction was quenched with 20 μL of 0.5 M acetic acid, and the fluorescent intensity measured at 523 nm (λex = 492 nm) using an Analyst HT multimode plate reader (Molecular Devices).
Sequence of DPAP1 (Q8IIJ9 whole entry, looked up): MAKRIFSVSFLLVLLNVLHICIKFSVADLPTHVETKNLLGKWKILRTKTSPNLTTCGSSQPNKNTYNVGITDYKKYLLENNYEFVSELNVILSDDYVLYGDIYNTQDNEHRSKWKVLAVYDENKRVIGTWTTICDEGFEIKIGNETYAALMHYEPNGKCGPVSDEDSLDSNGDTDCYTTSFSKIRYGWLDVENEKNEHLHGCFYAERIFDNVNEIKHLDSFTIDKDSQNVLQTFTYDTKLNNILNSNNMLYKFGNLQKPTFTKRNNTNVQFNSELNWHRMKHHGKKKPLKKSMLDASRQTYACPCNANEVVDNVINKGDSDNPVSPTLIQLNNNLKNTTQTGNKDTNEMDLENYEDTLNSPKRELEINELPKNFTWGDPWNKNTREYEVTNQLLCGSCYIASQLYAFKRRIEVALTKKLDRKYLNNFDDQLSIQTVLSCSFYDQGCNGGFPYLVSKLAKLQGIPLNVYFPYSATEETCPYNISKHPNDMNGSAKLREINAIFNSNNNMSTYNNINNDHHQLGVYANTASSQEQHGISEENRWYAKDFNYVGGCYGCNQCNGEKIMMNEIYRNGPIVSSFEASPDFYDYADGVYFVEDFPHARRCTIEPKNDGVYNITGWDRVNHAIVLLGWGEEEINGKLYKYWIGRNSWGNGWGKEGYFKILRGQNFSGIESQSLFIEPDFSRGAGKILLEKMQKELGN
In the case of `Cc1ccc(-n2ncc(C(=O)N3CCC(C(N)=O)CC3)c2NC(=O)c2ccco2)cc1C`, the “% Inhibition @ 10 uM” value is recorded as 0.245%.
As for `COc1cc(C2(O)CCCCC2C)cc(OC)c1OC` (stereo not shown), the “% Inhibition @ 10 uM” value is listed as 2.13%.
Consider `CCOc1ccc(C2CC(c3cccs3)Nc3ncnn32)cc1OC` (stereo not shown), for which the “% Inhibition @ 10 uM” value was -3.37%.
Regarding `O=C1CCCN1CCCNc1nc2ccccc2n2nnnc12`, the “% Inhibition @ 10 uM” value was 4.33%.
In the case of `CCCN1C(=O)c2cc(C(=O)O)ccc2C1O` (stereo not shown), the “% Inhibition @ 10 uM” value was -1.03%.
`CC1CCN(CCNC(=O)c2nn(C)c3c2CS(=O)(=O)c2ccccc2-3)CC1`: the “% Inhibition @ 10 uM” value is -0.495%.
As to `COc1ccc(CCN2CC34C=CC(O3)C(C(=O)NCc3ccccc3Cl)C4C2=O)cc1OC` (stereo not shown), the “% Inhibition @ 10 uM” value was found to be 1.07%.
Take `CCOC(=O)C1=C(CNCCc2ccc(Cl)cc2)NC(=O)NC1c1ccccc1` (stereo not shown): the “% Inhibition @ 10 uM” value is -6.91%.
`CCN(CC)CC#CC(O)(c1ccccc1)C1CCCCC1` (stereo not shown): the “% Inhibition @ 10 uM” value is listed as -0.902%.
Next, `COc1ccc(C(=N)NOC(=O)c2cc(-c3ccccc3)nc3ccccc23)cc1`: -1.33%; `O=C(Nc1nc2ccc(F)cc2s1)c1ccco1`: -2.63%; `Cc1ccc(C(=O)N/C(=C\c2cc(-c3ccccc3)nn2-c2ccccc2)C(=O)N2CCOCC2)cc1`: -5.28%.
On to `COc1ccccc1C1C(C#N)=C(N)OC2=C1C(=O)c1ccccc1C2=O` (stereo not shown), for which the “% Inhibition @ 10 uM” value was -2.21%.
Next, `CCOC(=O)C1=C(C)N=C2SCC(=O)N2C1c1ccc(OC)cc1` (stereo not shown): 5.98%; `O=C(COc1ccccc1)NC1(C(=O)NC2CCCC2)CCCCC1`: 0.361%; `O=C(NCCO)/C(=C\c1ccsc1)NC(=O)c1ccccc1`: -0.305%.
Next, `N#Cc1cc(NC(=O)c2ccc(F)cc2)c(O)n2c1nc1ccccc12`: 9.38%.
As for `O=C(Nc1nc2ccccc2[nH]1)C1CC1c1ccccc1` (stereo not shown), the “% Inhibition @ 10 uM” value is recorded as -9.94%.
On to `CCCC(O)(CCN1CCCCCC1)c1ccc(Br)cc1` (stereo not shown), for which the “% Inhibition @ 10 uM” value is given as 2.8%.
The same measure for `COc1cc(NC(=O)c2ccc(OC(F)F)c(OC)c2)c(OC)cc1Cl`: 2.08%; for `COCCCNC(=O)CCc1c(C)nc2c(-c3ccc(F)cc3)c(C)nn2c1C`: 6.1%; for `O=C(CNS(=O)(=O)c1cccc2nsnc12)NCc1ccc(Cl)cc1`: -2.9%.
Take `CCOc1nc(NCc2ccccc2)nc(NCc2cccnc2)n1`: the “% Inhibition @ 10 uM” value is reported as -1.25%.
With `NC(=O)c1ccc[n+]([O-])c1`, the “% Inhibition @ 10 uM” value was determined as 0.66%.
For `CC(=O)N(C)c1ccc(Br)c2c1C(=O)c1ccccc1C2=O`, the “% Inhibition @ 10 uM” value was -5.62%.
In the case of `Cc1ccccc1C1CC(=O)NC(SCC(=O)Nc2cccc(F)c2)=C1C#N` (stereo not shown), the “% Inhibition @ 10 uM” value is -2.8%.
Next, `CC(=O)N/C(=C/c1ccc2c(c1)OCO2)C(=O)O`: -2.21%; `CC(=O)c1ccc(NC(=O)c2ccc(OC(C)C)cc2)cc1`: 0.316%.
Consider `Cc1ccc(-c2ccc(=O)n(CC(=O)NCc3ccccc3Cl)n2)cc1`, for which the “% Inhibition @ 10 uM” value was -2.99%.
With `CSc1n[nH]c(NCc2cccs2)n1`, the “% Inhibition @ 10 uM” value worked out at 1.74%.
As for `CCN(CC)CCN(CC(=O)N(C1CCCCC1)C1CCCCC1)C(=O)c1ccco1`, the “% Inhibition @ 10 uM” value is listed as 8.55%.
For the molecule `O=C(c1cc(-c2ccc(F)cc2)n[nH]1)N1CCN(C(=O)c2ccco2)CC1`, the “% Inhibition @ 10 uM” value is -4.97%.
As for `CC(=O)c1cnc2c(c(C)nn2-c2ccccc2)c1O`, the “% Inhibition @ 10 uM” value is 0.708%.
Next, `CCOc1ccc(C2c3c(oc4ccc(F)cc4c3=O)C(=O)N2Cc2ccco2)cc1OC` (stereo not shown): 1.74%; `CCN1CCN(c2csc3ccccc3c2=O)CC1`: 1.97%.
For `O=C(Nc1ccc(F)cc1F)c1sc2ccccc2c1Cl`, the “% Inhibition @ 10 uM” value is on record as -1.5%.
As for `COc1cc2c(cc1OC)C(c1cccc(OC)c1OC)NCC2` (stereo not shown), the “% Inhibition @ 10 uM” value is 1.66%.
Next, `Cc1ccc(C(=O)Nc2sc3c(c2C(=O)O)CCCC3)cc1`: 2.17%; `CCCc1ccc(C#N)c(SC(C)(C)C(=O)O)n1`: -0.403%.
Consider `Cc1cc(OCC(=O)NC(C)C)cc(C)c1Br`, for which the “% Inhibition @ 10 uM” value was -8.4%.
For `COc1cc(C2C(C#N)=C(N)OC3=C2C(=O)CCC3)ccc1OCC(=O)Nc1ccc(C)cc1C` (stereo not shown), the “% Inhibition @ 10 uM” value came out at 0.851%.
Next, `COc1ccc(N2C(=O)C3C4C=CC(C3C2=O)N(C)C4=O)cc1` (stereo not shown): -3.66%.
On to `Cc1cccc(N2C(=O)C(Cl)=C(Nc3cccc(O)c3)C2=O)c1C`, for which the “% Inhibition @ 10 uM” value is -2.88%.
In the case of `O=C(Cc1ccc(Cl)cc1)N(Cc1ccccc1)c1ccccn1`, the “% Inhibition @ 10 uM” value was -7%.
Consider `Cc1ccccc1CCNC(=O)C1CCN(c2nnc(C)c3c(C)n(-c4ccccc4)nc23)CC1`, for which the “% Inhibition @ 10 uM” value was determined as 8.46%.
Turning to `Cc1cc(NC(=O)CCC2CCCCC2)no1`, the “% Inhibition @ 10 uM” value is 2.01%.
The same measure for `Cc1cccc(OCCCN2CCCC2)c1C`: -2.42%; for `CC(C)(C)c1ccc(C2c3c(-c4ccccc4O)n[nH]c3C(=O)N2CC2CCCO2)cc1` (stereo not shown): -1.35%; for `CNC(=O)C(C)NC(=O)C1O[C@@H]2OC(C)(C)O[C@@H]2[C@H]2OC(C)(C)O[C@@H]12` (stereo partly shown): -1.25%.
`C=CCn1c(SCC(=O)NCCO)nc2sc3c(c2c1=O)CCCC3`: the “% Inhibition @ 10 uM” value came out at 1.02%.
Regarding `NC(=S)N/N=C/c1sc(O)nc1-[n+]1ccc(-c2ccncc2)cc1`, the “% Inhibition @ 10 uM” value is recorded as -1.47%.
Take `CN(C(=O)Cn1nnc2sc(-c3ccccc3)cc2c1=O)C1CCCCC1`: the “% Inhibition @ 10 uM” value worked out at 0.758%.
Take `COc1cccc(C2C3=C(O)CCCC3=NC(C)=C2C(=O)OC2CCCC2)c1` (stereo not shown): the “% Inhibition @ 10 uM” value came out at 0.736%.
Next, `COCCNC(=O)CN(c1ccc(C)cc1)S(=O)(=O)c1ccc(F)cc1`: -2.28%; `CCOc1cc(C(=O)N(Cc2nc(-c3cccc(C)c3)no2)C(C)C)cc(OCC)c1OCC`: -1.54%.
In the case of `O=C(NCc1ccco1)c1cc2n(n1)C(C(F)(F)F)CC(c1ccc(Br)cc1)N2` (stereo not shown), the “% Inhibition @ 10 uM” value is reported as -2.06%.
With `CCc1ccc(N2CC(C(=O)NCc3ccc4c(c3)OCO4)CC2=O)cc1` (stereo not shown), the “% Inhibition @ 10 uM” value amounted to 0.431%.
Turning to `CCc1ccccc1NC(=O)CN1CC(c2ccccc2)CC1=O` (stereo not shown), the “% Inhibition @ 10 uM” value turned out to be 1.34%.
`Cc1cccc(C(=O)N2CCC(C)CC2)c1`: the “% Inhibition @ 10 uM” value is on record as 5.24%.
For the molecule `O=C(CCN1C(=O)c2cccc3cccc(c23)C1=O)N1CCN(c2ccc(F)cc2)CC1`, the “% Inhibition @ 10 uM” value is on record as -7.58%.
As for `Cc1cccnc1NC(=O)c1c(O)nc2c(c1O)CCCC2`, the “% Inhibition @ 10 uM” value is -3.93%.
Next, `CCCOc1ccc(CNC(=O)Cn2cc3c(n2)-c2c(oc(C(=O)N4CCCC4)c2C)CC3)cc1`: 6.45%; `CC1(C)CC(=O)C2=C(C1)OC(N)=C(C#N)C21C(=O)Nc2cc(Cl)ccc21` (stereo not shown): -3.26%; `CCn1c(SCc2nc(O)c3ccccc3n2)nnc1-c1cccnc1`: -5.62%.
